{"source": "the BET-seq Pho4 binding data (Le et al. 2018)", "note": "The list shows a part of the results. These are noisy estimates, calculated here from bound and input reads."}
{"target": "T1, Pho4 (S. cerevisiae) (UniProt P07270)", "T1 sequence": "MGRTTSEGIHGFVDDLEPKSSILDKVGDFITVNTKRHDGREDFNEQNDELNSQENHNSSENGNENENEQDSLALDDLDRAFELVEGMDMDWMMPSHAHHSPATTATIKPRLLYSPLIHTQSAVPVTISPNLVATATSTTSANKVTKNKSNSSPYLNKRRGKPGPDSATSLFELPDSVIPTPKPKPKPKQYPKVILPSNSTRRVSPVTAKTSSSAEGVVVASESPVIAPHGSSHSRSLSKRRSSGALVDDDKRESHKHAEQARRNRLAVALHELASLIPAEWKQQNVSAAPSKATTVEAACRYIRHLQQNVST", "experiment": "relative binding free energy (BET-seq); higher = weaker binding", "settings": "reference: library average", "units": {"relative binding free energy": "kcal/mol"}}
{"sequence": "GTGCACACGTGTTTAG", "relative binding free energy": 0.03}
{"sequence": "CGCTTCACGTGGGTAG", "relative binding free energy": 0.1}
{"sequence": "TAGAACACGTGGGGCT", "relative binding free energy": -0.15}
{"sequence": "TGGCGCACGTGTTTTT", "relative binding free energy": -0.08}
{"sequence": "AGGGACACGTGTCGGC", "relative binding free energy": 0.05}
{"sequence": "AATGGCACGTGTTGGA", "relative binding free energy": -0.06}
{"sequence": "TCGTGCACGTGGAGTT", "relative binding free energy": -0.05}
{"sequence": "CGATTCACGTGATGTG", "relative binding free energy": 0.33}
{"sequence": "TATGGCACGTGTTCTG", "relative binding free energy": -0.05}
{"sequence": "GTTCTCACGTGGGGGC", "relative binding free energy": 0.12}
{"sequence": "TTGTGCACGTGTGTCG", "relative binding free energy": -0.04}
{"sequence": "TTCGACACGTGTTAAT", "relative binding free energy": 0.09}
{"sequence": "TTGCTCACGTGCGTGA", "relative binding free energy": 0.15}
{"sequence": "TAGTACACGTGTGGGA", "relative binding free energy": 0.19}
{"sequence": "GGCTTCACGTGAGGGG", "relative binding free energy": 0.41}
{"sequence": "GGCTTCACGTGAGTGG", "relative binding free energy": 0.49}
{"sequence": "TCAAGCACGTGTGGTG", "relative binding free energy": -0.1}
{"sequence": "ATATACACGTGTCTGG", "relative binding free energy": -0.01}
{"sequence": "GGCTACACGTGGTTTT", "relative binding free energy": 0.12}
{"sequence": "GTAGTCACGTGCTGTT", "relative binding free energy": -0.01}
{"sequence": "TCGTTCACGTGTGCAT", "relative binding free energy": 0.43}
{"sequence": "TTTATCACGTGGGATT", "relative binding free energy": 0.13}
{"sequence": "TTTATCACGTGATGTG", "relative binding free energy": 0.18}
{"sequence": "GAAGACACGTGGTGTA", "relative binding free energy": -0.07}
{"sequence": "AATGGCACGTGTATTG", "relative binding free energy": -0.16}
{"sequence": "TTAGGCACGTGGGTGA", "relative binding free energy": -0.29}
{"sequence": "TGCGGCACGTGGGAGT", "relative binding free energy": -0.12}
{"sequence": "ATACGCACGTGTGGAT", "relative binding free energy": -0.04}
{"sequence": "GCTTGCACGTGTTTAT", "relative binding free energy": 0.1}
{"sequence": "TATAGCACGTGTAATG", "relative binding free energy": -0.04}
{"sequence": "GGTTTCACGTGTGTTA", "relative binding free energy": 0.4}
{"sequence": "GTATTCACGTGAGTTT", "relative binding free energy": 0.34}
{"sequence": "GGTTCCACGTGGGTAA", "relative binding free energy": 0.07}
{"sequence": "ACGATCACGTGGGCGG", "relative binding free energy": -0.01}
{"sequence": "TTTGCCACGTGTCTGG", "relative binding free energy": -0.09}
{"sequence": "GGGGCCACGTGGTTTA", "relative binding free energy": 0.01}
{"sequence": "GGGGGCACGTGTAAAA", "relative binding free energy": 0.12}
{"sequence": "GTGTCCACGTGATGTT", "relative binding free energy": 0.23}
{"sequence": "GATGGCACGTGCTGGG", "relative binding free energy": -0.04}
{"sequence": "TTATGCACGTGGGTCG", "relative binding free energy": -0.24}
{"sequence": "TGGCTCACGTGGAATG", "relative binding free energy": 0.35}
{"sequence": "AGTTGCACGTGAGAGA", "relative binding free energy": 0.23}
{"sequence": "AGAGTCACGTGAAGGT", "relative binding free energy": 0.29}
{"sequence": "CTAGGCACGTGGGTGC", "relative binding free energy": -0.25}
{"sequence": "ACTGGCACGTGGGGGC", "relative binding free energy": -0.18}
{"sequence": "ATTTTCACGTGTGGCC", "relative binding free energy": 0.32}
{"sequence": "CGTTGCACGTGATGGA", "relative binding free energy": 0.14}
{"sequence": "GTGTTCACGTGGTCGC", "relative binding free energy": 0.37}
{"sequence": "CGTTTCACGTGGGTTG", "relative binding free energy": 0.18}
{"sequence": "AGTCTCACGTGGTGTT", "relative binding free energy": 0.06}
{"sequence": "TTTACCACGTGGGGGC", "relative binding free energy": -0.17}
{"sequence": "TGAGTCACGTGTCGGA", "relative binding free energy": 0.11}
{"sequence": "TTATTCACGTGTGGGA", "relative binding free energy": 0.19}
{"sequence": "ATAGGCACGTGTAGCT", "relative binding free energy": -0.01}
{"sequence": "CGATCCACGTGTGTGT", "relative binding free energy": 0.08}
{"sequence": "TGTTGCACGTGGGGCA", "relative binding free energy": -0.17}
{"sequence": "CATGTCACGTGTAGGA", "relative binding free energy": 0.14}
